From patent US20170296668A1, “METHODS OF INCREASING SOLUBILITY OF POORLY SOLUBLE COMPOUNDS AND METHODS OF MAKING AND USING FORMULATIONS OF SUCH COMPOUND” (VIZURI HEALTH SCIENCES LLC, priority 2009, published 2017)

Key:
[1] = Table III; cited from earlier work
[2] = Solubility of apigenin in propylene glycol and ethylene glycol; type: physicochemical
[3] = Solubility of concentrates in oil solvents; type: physicochemical; details: mineral, jojoba, canola, borage oils
[4] = Solubility in PEG 400 / PEG 300 via thermal treatment process
[5] = Supersaturation test by addition of a crystal; details: crystal addition to cooled liquid
[6] = Aqueous solution clarity: water added to concentrate vs non-concentrate method
[7] = Coenzyme Q10, Polysorbate 80 and jojoba oil solubility testing; type: physicochemical; details: CoQ10 first solubilized in PS80 concentrate, about 2 hours

In the case of `O=c1cc(-c2ccc(O)cc2)oc2cc(O)cc(O)c12` [Apigenin, 4′,5,7,-trihydroxyflavone], the “Lit. H2O Sol. -” value [1] is listed as 0.002 mg/mL, the “behaviour after a few drops of water were added” value ([2]; saturated apigenin/EG solution) is listed as “a significant fraction of the solubilized apigenin precipitated out” and the “behaviour after a few drops of water were added” value ([2]; saturated apigenin/PG solution) is listed as “a significant fraction of the solubilized apigenin precipitated out”. The “solubility in the test oils” value [3] was “insoluble”, the “Molar Ratio PEG400/API (mole/mole)” value [4] was 21.7 mole/mole and the “DPSI PEG300 Sol. Data” value ([4]; PEG300, thermal treatment) was 35 to 45 mg/mL. The “DPSI PEG400 Sol. Data” value ([4]; thermal treatment) was 30 to 40 mg/mL.

For `COc1cc(CNC(=O)CCCC/C=C/C(C)C)ccc1O` [Capsaicin, reference compound], the “supersaturation of PEG 400 concentrate” value [5] was “not supersaturated”, the “supersaturation of PS80 concentrate” value [5] was “not supersaturated” and the “clarity, non-concentrate method (all ingredients with water heated to about 100° C.)” value ([6]; PEG 400) was “opaque cloudy solutions”. For the same compound, the “clarity after addition of 17 ml of water to the concentrate” value ([6]; PEG 400 concentrate) was “opaque and cloudy”, the “clarity, non-concentrate method (all ingredients with water heated to about 100° C.)” value ([6]; PS80) was “opaque cloudy solutions” and the “clarity after addition of 17 ml of water to the concentrate” value ([6]; PS80 concentrate, more than 50 hours) was “A clear solution”.

For `COC1=C(OC)C(=O)C(C/C=C(\C)CC/C=C(\C)CC/C=C(\C)CC/C=C(\C)CC/C=C(\C)CC/C=C(\C)CC/C=C(\C)CC/C=C(\C)CC/C=C(\C)CCC=C(C)C)=C(C)C1=O` [CoQ10, Coenzyme Q10], the “distribution between water and Jojoba oil phases, Test 2” value [7] was “the water phase contained the CoQ10”.
